About 2,200 (0.71%) of roughly 310,000 compounds showed an effect of 50% or more. Effects have a minus sign here. The list shows a part of the results.
target: human ether-à-go-go-related gene (hERG) potassium channel (human, UniProt Q12809); assay: primary screen, population patch clamp on CHO cells stably expressing hERG
Sequence (Q12809 whole entry, looked up): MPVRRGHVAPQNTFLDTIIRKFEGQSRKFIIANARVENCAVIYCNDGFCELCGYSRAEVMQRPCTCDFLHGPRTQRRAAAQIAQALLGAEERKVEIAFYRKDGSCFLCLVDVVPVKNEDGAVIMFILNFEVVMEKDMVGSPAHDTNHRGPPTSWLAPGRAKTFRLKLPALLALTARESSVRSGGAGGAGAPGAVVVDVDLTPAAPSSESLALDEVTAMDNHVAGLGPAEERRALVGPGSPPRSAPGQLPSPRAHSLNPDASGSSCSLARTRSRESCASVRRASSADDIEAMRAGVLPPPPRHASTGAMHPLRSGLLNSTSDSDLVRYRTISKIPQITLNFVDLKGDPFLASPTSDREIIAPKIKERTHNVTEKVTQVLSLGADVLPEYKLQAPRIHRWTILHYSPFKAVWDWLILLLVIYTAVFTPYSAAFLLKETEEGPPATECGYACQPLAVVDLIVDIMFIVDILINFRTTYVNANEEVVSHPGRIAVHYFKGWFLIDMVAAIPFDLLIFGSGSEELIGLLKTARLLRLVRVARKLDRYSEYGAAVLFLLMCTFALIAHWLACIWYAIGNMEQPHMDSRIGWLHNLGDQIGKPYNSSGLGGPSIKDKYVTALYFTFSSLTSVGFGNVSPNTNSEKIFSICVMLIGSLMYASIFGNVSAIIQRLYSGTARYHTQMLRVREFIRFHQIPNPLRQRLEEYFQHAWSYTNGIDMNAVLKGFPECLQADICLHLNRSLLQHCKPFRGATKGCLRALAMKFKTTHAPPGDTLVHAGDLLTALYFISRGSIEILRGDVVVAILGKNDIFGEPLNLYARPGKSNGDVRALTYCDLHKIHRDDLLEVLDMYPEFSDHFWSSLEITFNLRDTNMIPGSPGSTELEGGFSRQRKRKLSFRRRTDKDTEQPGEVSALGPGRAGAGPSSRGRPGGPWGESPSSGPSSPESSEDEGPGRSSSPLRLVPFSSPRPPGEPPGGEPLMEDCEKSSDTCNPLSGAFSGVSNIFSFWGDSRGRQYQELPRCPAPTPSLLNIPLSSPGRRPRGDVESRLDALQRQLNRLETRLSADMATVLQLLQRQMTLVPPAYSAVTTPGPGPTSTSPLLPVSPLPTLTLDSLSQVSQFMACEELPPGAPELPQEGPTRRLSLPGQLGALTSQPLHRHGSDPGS

Row | SMILES | hERG current change (%, negative = inhibition) at 1uM
1 | O=C(Nc1ccc2c(c1)OCO2)C1CCCN1C(=O)Nc1cccc(F)c1 (stereo not shown) | -13.3%
2 | CCN(CC)C1=C(Cl)C(=O)C(Cl)C12OCCO2 (stereo not shown) | 12.1%
3 | CN(CC(=O)Nc1c(Cl)cccc1Cl)C(=O)CCCN1C(=O)c2ccccc2C1=O | 14.8%
4 | CCCCCCC(=O)Nc1ccc(C(=O)N2CCCC2)cc1 | 4.94%
5 | Cn1cccc1C(=O)Nc1nccs1 | 11.4%
6 | Cc1cccc(NC(=O)c2cc(S(=O)(=O)NCc3ccco3)ccc2F)c1C | 4.22%
7 | Cc1cc2c(c(=O)n1CC1CCCO1)C(c1ccco1)C(C#N)=C(N)O2 (stereo not shown) | 13.1%
8 | O=C1NC(=S)S/C1=C\c1cc2ccccc2nc1N1CCCCC1 | 8.93%
9 | CCOC(=O)N1CCN(S(=O)(=O)c2cc(Cl)c(OC)cc2Cl)CC1 | 15.5%
10 | COc1ccc(NC(=O)CC2C(=O)N(c3ccc(OC)cc3)C(=O)N2CCc2cccs2)cc1 (stereo not shown) | 7.3%
11 | COc1ccc(-c2cn[nH]c2-c2ccc(OCc3ccc([N+](=O)[O-])cc3)cc2O)cc1 | -0.406%
12 | CCOC(=O)CC(NC(=O)c1cc2ccccc2oc1=O)c1cccc([N+](=O)[O-])c1 (stereo not shown) | 8.81%
13 | O=C(Nc1c2c(nn1-c1ccccc1)CS(=O)C2)c1ccc2c(c1)OCO2 (stereo not shown) | 4.15%
14 | CCOC1(c2ccccc2)OC(=O)c2ccccc21 (stereo not shown) | 7.3%
15 | COc1cc(CNS(=O)(=O)c2ccc3c(c2)CC(C)N3C(=O)C2CCC2)cc(OC)c1OC (stereo not shown) | 0.406%
16 | COc1ccc(OC)c(C(=O)c2ccc(C(=O)c3cc(OC)ccc3OC)cc2)c1 | 4.89%
17 | N#Cc1cccc(NC(=O)CCNS(=O)(=O)c2ccc3[nH]c(=O)oc3c2)c1 | 15.8%
18 | CC1CCCCC1NC(=O)CCS(=O)(=O)c1cccc2nonc12 (stereo not shown) | 4.02%
19 | COc1cccc(NC(=S)N(Cc2ccco2)C(C)c2ccco2)c1 (stereo not shown) | 6.13%
20 | COc1ccc(NC(=O)COC(=O)c2cc(C)oc2C)c([N+](=O)[O-])c1 | 10.5%

Row | SMILES | hERG current change (%, negative = inhibition) at 1uM
21 | COc1cc(OC)cc(C(=O)NCC(=O)OC2CCOC2=O)c1 (stereo not shown) | 13.3%
22 | CC(=O)Nc1ccc(C(=O)N2CCCC2)cc1 | 4.31%
23 | CC(C)Oc1ccc(S(=O)(=O)N2CCCCC2)cc1NC(=O)C1CCC1 | 2.97%
24 | COc1cccc(-c2nn(-c3ccccc3)cc2C(=O)O)c1 | -1.16%
25 | CN(C)CCCOC(=O)COc1ccc(Br)cc1.Cl | 7.14%
26 | Cn1nnnc1NCc1cccc(Cl)c1 | 9.85%
27 | CCOC(=O)c1ccc(NC(=O)Nc2c(C)nn(C)c2C)cc1 | -2.18%
28 | Cc1nn(CC(=O)Nc2ccc(Cl)cn2)c(C)c1[N+](=O)[O-] | 1.51%
29 | Cc1cc(C)nc(N2N=C(C(C)(C)C)CC2=O)n1 | 7.41%
30 | Cc1ccc(OP(=O)(Nc2c(C)n(C)n(-c3ccccc3)c2=O)Oc2ccc(C)cc2)cc1 | 3.15%
31 | Cc1cccc(C)c1NC(=O)C1CCCN1C(=O)NCc1ccccc1 (stereo not shown) | 16.6%
32 | Cc1ccc(Cl)cc1NC(=O)C(Cc1ccccc1)N1C(=O)C2C3CCC(C3)C2C1=O (stereo not shown) | 3.55%
33 | Cc1nc2c3cc(Cl)ccc3n(CCN3CCCCC3)c2s1.Cl | -32.6%
34 | CC1S/C(=N/N=C2CCC(C(C)(C)C)CC2)NC1=O (stereo not shown) | 4.23%
35 | CCOC(=O)c1ccccc1NC(=O)C1CCN(c2ncnc3sc(C)c(C)c23)CC1 | 9.88%
36 | Cc1occc1C(=O)NC(C)C1CCCO1 (stereo not shown) | 2.36%
37 | CCCc1cc(C(=O)Nc2sc3c(c2C(=O)OCC)CCCC3)no1 | 8.91%
38 | Cn1c(SCc2c(Cl)cccc2Cl)nc(C(F)(F)F)cc1=O | 4.74%
39 | COc1ccc([C@H]2[C@H](C(=O)OC(C)(C)C)N3N=Cc4ccccc4C3C23C(=O)c2ccccc2C3=O)c(OC)c1 (stereo partly shown) | 16%
40 | O=C(Nc1cccnc1)C1CCCN(S(=O)(=O)c2ccccc2)C1 (stereo not shown) | -4.7%

Row | SMILES | hERG current change (%, negative = inhibition) at 1uM
41 | COc1ccc(C(=O)NCC(=O)NCC(=O)OCC(=O)C(C)(C)C)cc1 | 15.2%
42 | Cc1cccc(-c2noc(CCCC(=O)N3CCOCC3)n2)c1 | 9.5%
43 | O=C(NCc1ccccc1)C1CCCN1S(=O)(=O)c1ccc(F)cc1 (stereo not shown) | 16.2%
44 | Cc1ccc2cn[nH]c2c1[N+](=O)[O-] | 5.43%
45 | O=C(c1ccc(Br)cc1)N(Cc1nc2ccccc2c(=O)[nH]1)C1CCCC1 | 7.89%
46 | Cc1cc(CC(C)C)n(-c2nc3ccccc3c(=O)n2OCC(=O)N(C)C)n1 | 7.81%
47 | COc1ccccc1/C=C/C(=O)OCCN1CCOCC1.Cl | 5.39%
48 | O=C(Nc1ccccc1)C1=C[C@@H](c2ccccc2)C[C@@H](OCc2ccc(CO)cc2)O1 | 11.9%
49 | O=C(OCCc1cc2ccccc2c(=O)o1)N1CCOCC1 | 16.1%
50 | CCC(=O)Nc1ccc(NC(=O)c2oc3ccccc3c2C)cc1 | 9.2%
51 | COc1ccccc1NC(=S)NC1CCCC1 | 14.8%
52 | CC1(C)CC(NC(=O)COc2ccc3ccccc3c2)CC(C)(C)N1 | 18%
53 | O=C(/C=C/c1ccc(Br)cc1)c1ccco1 | 9.68%
54 | CC1CCCN(CC(=O)Nc2ccc(S(=O)(=O)N3CCCCC3)cc2)C1 (stereo not shown) | 7.51%
55 | Cc1ccc2nc(-c3ccccc3)cc(C(=O)N3CC(C)OC(C)C3)c2c1 (stereo not shown) | 11.4%
56 | Cc1cc(C(=O)N2CCOCC2)c(C)o1 | 3.12%
57 | CC(C)(C)NC(=S)NNC(=O)c1ccc2ncccc2c1 | 6.92%
58 | CCOC(=O)C1CCCN(C(=O)c2ccccc2Oc2ccccc2)C1 (stereo not shown) | 5.92%
